In PMC4336329 (PLoS ONE, 2015):
In all, about 310,000 compounds went through this assay and about 2,200 (0.71%) showed an effect of 50% or more. Effects have a minus sign here. Some of the results follow.

Target: human ether-à-go-go-related gene (hERG) potassium channel (human, UniProt Q12809)
Assay: primary screen, population patch clamp on CHO cells stably expressing hERG

Sequence of human ether-à-go-go-related gene (hERG) potassium channel (Q12809 whole entry, looked up): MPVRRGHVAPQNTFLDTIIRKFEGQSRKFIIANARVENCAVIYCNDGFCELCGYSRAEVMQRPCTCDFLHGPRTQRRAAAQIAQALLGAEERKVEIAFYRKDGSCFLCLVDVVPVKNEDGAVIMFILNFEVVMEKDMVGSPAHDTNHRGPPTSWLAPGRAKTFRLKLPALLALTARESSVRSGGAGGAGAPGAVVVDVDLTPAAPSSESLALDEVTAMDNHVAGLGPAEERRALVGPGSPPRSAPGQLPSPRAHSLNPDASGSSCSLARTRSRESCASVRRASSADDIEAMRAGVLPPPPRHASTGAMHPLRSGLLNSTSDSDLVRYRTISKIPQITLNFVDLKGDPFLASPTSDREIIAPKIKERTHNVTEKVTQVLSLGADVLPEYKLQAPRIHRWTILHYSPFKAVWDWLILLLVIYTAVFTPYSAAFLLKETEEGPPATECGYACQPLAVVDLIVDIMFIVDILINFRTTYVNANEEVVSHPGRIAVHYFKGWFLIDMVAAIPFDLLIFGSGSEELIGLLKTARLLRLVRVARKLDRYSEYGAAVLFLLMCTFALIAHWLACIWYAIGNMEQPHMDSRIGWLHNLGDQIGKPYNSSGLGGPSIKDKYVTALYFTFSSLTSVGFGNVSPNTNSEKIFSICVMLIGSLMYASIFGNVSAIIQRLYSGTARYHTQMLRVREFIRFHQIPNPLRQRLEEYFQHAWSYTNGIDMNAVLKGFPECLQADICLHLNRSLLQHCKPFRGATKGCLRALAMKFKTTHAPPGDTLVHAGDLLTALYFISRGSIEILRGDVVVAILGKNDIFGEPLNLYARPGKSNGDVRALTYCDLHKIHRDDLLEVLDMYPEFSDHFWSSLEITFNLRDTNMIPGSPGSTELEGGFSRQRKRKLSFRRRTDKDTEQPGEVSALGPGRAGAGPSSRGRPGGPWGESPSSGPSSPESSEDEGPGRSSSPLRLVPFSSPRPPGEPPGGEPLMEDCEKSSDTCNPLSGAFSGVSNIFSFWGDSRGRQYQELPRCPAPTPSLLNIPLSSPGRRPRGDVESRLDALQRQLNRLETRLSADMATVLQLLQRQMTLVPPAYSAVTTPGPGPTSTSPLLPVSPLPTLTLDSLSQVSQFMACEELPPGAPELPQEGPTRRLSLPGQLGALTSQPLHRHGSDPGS

| Compound | hERG current change (%, negative = inhibition) at 1uM |
| --- | --- |
| O=C(Cc1ccccc1[N+](=O)[O-])NCCCc1ccccc1 | 13.9% |
| CCOC(=O)N1CCN(S(=O)(=O)c2ccc(C(=O)Nc3sc4c(c3C#N)CCC4)cc2)CC1 | 2.82% |
| O=C(NCc1n[nH]c(=O)c2ccccc12)C1CC(=O)N(c2ccccc2)C1 (centres unmarked) | 3.87% |
| Cc1[nH]n(-c2ccccc2)c(=O)c1/C=N/n1c(C)nc2ccccc2c1=O | 14.4% |
| O=C(CCN1C(=O)COc2ccccc21)N1CCCCC1 | -3.07% |
| COc1cccc(CC(=O)OCC(=O)c2cc(OC)ccc2OC)c1 | -10.1% |
| O=C(c1cccc(Br)c1)c1coc2ccc(O)cc12 | 10.4% |
| CC1CCN(CCCn2c(=S)[nH]c3ccccc3c2=O)CC1 | -13.5% |
| Cc1ccc(S(=O)(=O)N2CCOCC2)cc1NC(=O)COC(=O)COc1cccc2c1OC(C)(C)C2 | 9.09% |
| O=C(N/N=C/c1cccc([N+](=O)[O-])c1)c1ccc(COc2ccccc2-c2ccccc2)cc1 | 1.68% |
| CCC(C)(C)NC(=O)CN(Cc1ccc2c(c1)OCO2)C(=O)CCC(=O)Nc1ccccn1 | 8.54% |
| O=C(C1=C[C@@H](c2ccc(C(F)(F)F)cc2)C[C@@H](OCCCCO)O1)N1CCCCCCC1 | 17.4% |
| CN(C)/C=N/C(=S)Nc1ccc(Br)cc1F | 11.7% |
| NS(=O)(=O)c1ccc(CNS(=O)(=O)c2ccc3ccccc3c2)cc1 | 2.53% |
| CCCNC(=O)c1ccc2nc(-c3ccccc3)c(-c3ccccc3)nc2c1 | 13% |
| CCc1ccccc1NC(=O)CC1SCCNC1=O (centres unmarked) | 24% |
| O=[N+]([O-])c1cc([N+](=O)[O-])c(Oc2cc(F)ccc2F)cc1NN1CCCCC1 | 22.2% |
| CCC(=O)c1ccc(SC(=O)N(C)C)cc1O | 14.2% |
| CCOC(=O)C1CCN(C(=O)/C=C/c2ccccc2OC)CC1 | -7.77% |
| COc1ccccc1Oc1ccc(S(=O)(=O)N2CCOCC2)cc1S(=O)(=O)N1CCOCC1 | -21.4% |
| CCNC(=O)N1CCOCC1 | 11.8% |
| NC(=O)CCS(=O)(=O)c1ccccc1 | 14.3% |

| Compound | hERG current change (%, negative = inhibition) at 1uM |
| --- | --- |
| COc1ccc(Cc2nc(-c3cccs3)no2)cc1 | 10.2% |
| COc1cccc(OC)c1C(=O)Nc1sc2c(c1C#N)CCC2 | 13.2% |
| O=C1C2CC=CCC2C(=O)N1CC1CCCO1 (centres unmarked) | 6.16% |
| Fc1ccc(Br)cc1/C=N/n1cnnc1 | 15% |
| O=S(=O)(Nn1c(O)c(C=C2N=c3ccccc3=N2)sc1=S)c1ccccc1 | 8.42% |
| O=C1CCNc2c(Cl)cc(Cl)cc21 | 11.6% |
| CCC1CCCCN1CCCNC(=O)c1ccc(CS(=O)(=O)c2ccccc2C)o1 (centres unmarked) | 2.22% |
| COc1ccc(CC(NC(C)=O)C(=O)N2CCN(C(=O)Nc3cccc(Cl)c3)CC2)cc1OC (centres unmarked) | 13.7% |
| O=C(CCC(=O)c1cccs1)Nc1nnc(C2CC2)s1 | 15.5% |
| O=C(NNc1nc2ccccc2nc1C(F)(F)F)c1ccccc1 | 11.7% |
| CC1=NN(c2ccccc2)C(=O)/C1=C\c1c(C)[nH]n(-c2ccccc2)c1=O | 6.91% |
| O=C(Nc1ccccc1C(F)(F)F)N1CCN(c2ccc3nncn3n2)CC1 | 9.93% |
| Cc1nnc(SCC(=O)Nc2ccc([N+](=O)[O-])cc2)n1CC1CCCO1 (centres unmarked) | -4.3% |
| CS(=O)(=O)N(CC(=O)N1CCN(c2cccc(Cl)c2)CC1)C1CCCCC1 | 9.72% |
| O=C(CNC(=O)c1ccco1)NCC(=O)OC(C(=O)c1ccccc1)c1ccc(Cl)cc1 (centres unmarked) | 8.37% |
| CN1CCN(S(=O)(=O)c2cccc(C(=O)N3CCN(c4ccccc4F)CC3)c2)CC1 | 4.57% |
| Cc1ccc2c(c1)C(=O)C(=O)N2CCOc1ccccc1 | 11.5% |
| CCc1cc2c(SCC(=O)C(C#N)=C3N(C)c4ccccc4N3C)ncnc2s1 | 5.27% |
| CNC(=O)c1ccccc1-c1ccccc1 | 1.15% |
| CN1CCN(Cc2ccccc2C(F)(F)F)CC1 | 8.81% |
| Cc1ccc(CC2C(=O)N(c3ccc(C)cc3)C(=O)C2C)cc1 (centres unmarked) | 15.5% |
| Cc1ccc(C(=O)N/C(=C/c2cccs2)C(=O)NCc2ccco2)cc1 | 3.04% |
